{"source": "the supplement of paper PMC12230231", "note": "± gives the standard deviation of the averaged measurements. Restriction of a single-cycle SIVsab GFP reporter by TRIM5α v1-loop variants in CRFK cells. Human variants: read share among cells still uninfected after two challenges over input, higher = gained restriction. Rhesus variants: share among infected cells over input, higher = lost restriction. Reporter dose not given per row. No active / inactive call per row; the paper calls a change when both replicates lie above its controls (mean + 2 SD of stop or wild-type variants, or the top frameshift score). Residues outside the varied loop are taken from Swiss-Prot. The paper reads the human single-substitution scores as noise; they and the rhesus combinations repeat poorly (rank correlation 0.3 to 0.4), indel scores repeat only for the top variants, rhesus substitutions well (0.9).", "data": [{"system": "SIVsab (simian immunodeficiency virus of sabaeus monkeys), single-cycle GFP reporter, in CRFK cells", "assay": "enrichment among uninfected cells over input (fold); higher = stronger restriction", "conditions": "library: human / rhesus combinations", "method": "(§1)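 Pools of CRFK cells expressing variants of the TRIM5α v1 loop were challenged with the single-cycle reporter, sorted by GFP and sequenced; mean of two replicates.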", "values": [{"sequence": "MASGILVNVKEEVTCPICLELLTQPLSLDCGHSFCQACLTANHKKSMLDKGESSCPVCRISYQPENIRPNRHVANIVEKLREVKLSPEGQKVDHCARHGEKLLLFCQEDGKVICWLCERSQEHRGHHTFLTEEVAREYQVKLQAALEMLRQKQQEAEELEADIREEKASWKTQIQYDKTNVLADFEQLRDILDWEESNELQNLEKEEEDILKSLTNSETEMVQQTQSLRELISDLEHRLQGSVMELLQGVDGVIKRTENVTLKKPETFPKNQRRVFRAPDLKGMLEVFRELTDVRRYWVDVTVAPNNISCAVISEDKRQVSSPKPQIIYQARGTLFTFPTLTNFNYCTGILGSQSITSGKHYWEVDVSKKTAWILGVCAGFQPDAMCNIEKNENYQPKYGYWVIGLEEGVKCSAFQDSSFHTPSVPFIVPLSVIICPDRVGVFLDYEACTVSFFNITNHGFLIYKFSHCSFSQPVFPYLNPRKCGVPMTLCSPSS [human TRIM5α, 330-340 = QARGTLFTFPTLT]", "enrichment": "0.783 ± 0.091"}, {"sequence": "MASGILVNVKEEVTCPICLELLTQPLSLDCGHSFCQACLTANHKKSMLDKGESSCPVCRISYQPENIRPNRHVANIVEKLREVKLSPEGQKVDHCARHGEKLLLFCQEDGKVICWLCERSQEHRGHHTFLTEEVAREYQVKLQAALEMLRQKQQEAEELEADIREEKASWKTQIQYDKTNVLADFEQLRDILDWEESNELQNLEKEEEDILKSLTNSETEMVQQTQSLRELISDLEHRLQGSVMELLQGVDGVIKRTENVTLKKPETFPKNQRRVFRAPDLKGMLEVFRELTDVRRYWVDVTVAPNNISCAVISEDKRQVSSPKPQIIYQARGTRYTFQTFTNFNYCTGILGSQSITSGKHYWEVDVSKKTAWILGVCAGFQPDAMCNIEKNENYQPKYGYWVIGLEEGVKCSAFQDSSFHTPSVPFIVPLSVIICPDRVGVFLDYEACTVSFFNITNHGFLIYKFSHCSFSQPVFPYLNPRKCGVPMTLCSPSS [human TRIM5α, 330-340 = QARGTRYTFQTFT]", "enrichment": "0.138 ± 0.038"}, {"sequence": "MASGILVNVKEEVTCPICLELLTQPLSLDCGHSFCQACLTANHKKSMLDKGESSCPVCRISYQPENIRPNRHVANIVEKLREVKLSPEGQKVDHCARHGEKLLLFCQEDGKVICWLCERSQEHRGHHTFLTEEVAREYQVKLQAALEMLRQKQQEAEELEADIREEKASWKTQIQYDKTNVLADFEQLRDILDWEESNELQNLEKEEEDILKSLTNSETEMVQQTQSLRELISDLEHRLQGSVMELLQGVDGVIKRTENVTLKKPETFPKNQRRVFRAPDLKGMLEVFRELTDVRRYWVDVTVAPNNISCAVISEDKRQVSSPKPQIIYQARGTRFTFPTFVNFNYCTGILGSQSITSGKHYWEVDVSKKTAWILGVCAGFQPDAMCNIEKNENYQPKYGYWVIGLEEGVKCSAFQDSSFHTPSVPFIVPLSVIICPDRVGVFLDYEACTVSFFNITNHGFLIYKFSHCSFSQPVFPYLNPRKCGVPMTLCSPSS [human TRIM5α, 330-340 = QARGTRFTFPTFV]", "enrichment": "0.291 ± 0.063"}, {"sequence": "MASGILVNVKEEVTCPICLELLTQPLSLDCGHSFCQACLTANHKKSMLDKGESSCPVCRISYQPENIRPNRHVANIVEKLREVKLSPEGQKVDHCARHGEKLLLFCQEDGKVICWLCERSQEHRGHHTFLTEEVAREYQVKLQAALEMLRQKQQEAEELEADIREEKASWKTQIQYDKTNVLADFEQLRDILDWEESNELQNLEKEEEDILKSLTNSETEMVQQTQSLRELISDLEHRLQGSVMELLQGVDGVIKRTENVTLKKPETFPKNQRRVFRAPDLKGMLEVFRELTDVRRYWVDVTVAPNNISCAVISEDKRQVSSPKPQIIYGAPGTRFTFPTLTNFNYCTGILGSQSITSGKHYWEVDVSKKTAWILGVCAGFQPDAMCNIEKNENYQPKYGYWVIGLEEGVKCSAFQDSSFHTPSVPFIVPLSVIICPDRVGVFLDYEACTVSFFNITNHGFLIYKFSHCSFSQPVFPYLNPRKCGVPMTLCSPSS [human TRIM5α, 330-340 = GAPGTRFTFPTLT]", "enrichment": "0.219 ± 0.026"}, {"sequence": "MASGILVNVKEEVTCPICLELLTQPLSLDCGHSFCQACLTANHKKSMLDKGESSCPVCRISYQPENIRPNRHVANIVEKLREVKLSPEGQKVDHCARHGEKLLLFCQEDGKVICWLCERSQEHRGHHTFLTEEVAREYQVKLQAALEMLRQKQQEAEELEADIREEKASWKTQIQYDKTNVLADFEQLRDILDWEESNELQNLEKEEEDILKSLTNSETEMVQQTQSLRELISDLEHRLQGSVMELLQGVDGVIKRTENVTLKKPETFPKNQRRVFRAPDLKGMLEVFRELTDVRRYWVDVTVAPNNISCAVISEDKRQVSSPKPQIIYQAPGTLYTFPSFVNFNYCTGILGSQSITSGKHYWEVDVSKKTAWILGVCAGFQPDAMCNIEKNENYQPKYGYWVIGLEEGVKCSAFQDSSFHTPSVPFIVPLSVIICPDRVGVFLDYEACTVSFFNITNHGFLIYKFSHCSFSQPVFPYLNPRKCGVPMTLCSPSS [human TRIM5α, 330-340 = QAPGTLYTFPSFV]", "enrichment": "0.824 ± 0.4"}, {"sequence": "MASGILVNVKEEVTCPICLELLTQPLSLDCGHSFCQACLTANHKKSMLDKGESSCPVCRISYQPENIRPNRHVANIVEKLREVKLSPEGQKVDHCARHGEKLLLFCQEDGKVICWLCERSQEHRGHHTFLTEEVAREYQVKLQAALEMLRQKQQEAEELEADIREEKASWKTQIQYDKTNVLADFEQLRDILDWEESNELQNLEKEEEDILKSLTNSETEMVQQTQSLRELISDLEHRLQGSVMELLQGVDGVIKRTENVTLKKPETFPKNQRRVFRAPDLKGMLEVFRELTDVRRYWVDVTVAPNNISCAVISEDKRQVSSPKPQIIYGARGTRFTFQTFTNFNYCTGILGSQSITSGKHYWEVDVSKKTAWILGVCAGFQPDAMCNIEKNENYQPKYGYWVIGLEEGVKCSAFQDSSFHTPSVPFIVPLSVIICPDRVGVFLDYEACTVSFFNITNHGFLIYKFSHCSFSQPVFPYLNPRKCGVPMTLCSPSS [human TRIM5α, 330-340 = GARGTRFTFQTFT]", "enrichment": "0.171 ± 0.011"}]}, {"system": "SIVsab (simian immunodeficiency virus of sabaeus monkeys), single-cycle GFP reporter, in CRFK cells", "assay": "enrichment among uninfected cells over input (fold); higher = stronger restriction", "conditions": "library: insertions and deletions", "method": "as §1", "values": [{"sequence": "MASGILVNVKEEVTCPICLELLTQPLSLDCGHSFCQACLTANHKKSMLDKGESSCPVCRISYQPENIRPNRHVANIVEKLREVKLSPEGQKVDHCARHGEKLLLFCQEDGKVICWLCERSQEHRGHHTFLTEEVAREYQVKLQAALEMLRQKQQEAEELEADIREEKASWKTQIQYDKTNVLADFEQLRDILDWEESNELQNLEKEEEDILKSLTNSETEMVQQTQSLRELISDLEHRLQGSVMELLQGVDGVIKRTENVTLKKPETFPKNQRRVFRAPDLKGMLEVFRELTDVRRYWVDVTVAPNNISCAVISEDKRQVSSPKPQIIYGARGTRYQVNFNYCTGILGSQSITSGKHYWEVDVSKKTAWILGVCAGFQPDAMCNIEKNENYQPKYGYWVIGLEEGVKCSAFQDSSFHTPSVPFIVPLSVIICPDRVGVFLDYEACTVSFFNITNHGFLIYKFSHCSFSQPVFPYLNPRKCGVPMTLCSPSS [human TRIM5α, 2-codon deletion at 338]", "enrichment": "0.933 ± 0.76"}, {"sequence": "MASGILVNVKEEVTCPICLELLTQPLSLDCGHSFCQACLTANHKKSMLDKGESSCPVCRISYQPENIRPNRHVANIVEKLREVKLSPEGQKVDHCARHGEKLLLFCQEDGKVICWLCERSQEHRGHHTFLTEEVAREYQVKLQAALEMLRQKQQEAEELEADIREEKASWKTQIQYDKTNVLADFEQLRDILDWEESNELQNLEKEEEDILKSLTNSETEMVQQTQSLRELISDLEHRLQGSVMELLQGVDGVIKRTENVTLKKPETFPKNQRRVFRAPDLKGMLEVFRELTDVRRYWVDVTVAPNNISCAVISEDKRQVSSPKPQIIYGARGTRYQTFTGILGSQSITSGKHYWEVDVSKKTAWILGVCAGFQPDAMCNIEKNENYQPKYGYWVIGLEEGVKCSAFQDSSFHTPSVPFIVPLSVIICPDRVGVFLDYEACTVSFFNITNHGFLIYKFSHCSFSQPVFPYLNPRKCGVPMTLCSPSS [human TRIM5α, 6-codon deletion at 340]", "enrichment": "0.896 ± 0.27"}, {"sequence": "MASGILVNVKEEVTCPICLELLTQPLSLDCGHSFCQACLTANHKKSMLDKGESSCPVCRISYQPENIRPNRHVANIVEKLREVKLSPEGQKVDHCARHGEKLLLFCQEDGKVICWLCERSQEHRGHHTFLTEEVAREYQVKLQAALEMLRQKQQEAEELEADIREEKASWKTQIQYDKTNVLADFEQLRDILDWEESNELQNLEKEEEDILKSLTNSETEMVQQTQSLRELISDLEHRLQGSVMELLQGVDGVIKRTENVTLKKPETFPKNQRRVFRAPDLKGMLEVFRELTDVRRYWVDVTVAPNNISCAVISEDKRQVSSPKPQIIYGARGTRYQTFVNFQSITSGKHYWEVDVSKKTAWILGVCAGFQPDAMCNIEKNENYQPKYGYWVIGLEEGVKCSAFQDSSFHTPSVPFIVPLSVIICPDRVGVFLDYEACTVSFFNITNHGFLIYKFSHCSFSQPVFPYLNPRKCGVPMTLCSPSS [human TRIM5α, 9-codon deletion at 343]", "enrichment": "4.03 ± 4.2"}, {"sequence": "MASGILVNVKEEVTCPICLELLTQPLSLDCGHSFCQACLTANHKKSMLDKGESSCPVCRISYQPENIRPNRHVANIVEKLREVKLSPEGQKVDHCARHGEKLLLFCQEDGKVICWLCERSQEHRGHHTFLTEEVAREYQVKLQAALEMLRQKQQEAEELEADIREEKASWKTQIQYDKTNVLADFEQLRDILDWEESNELQNLEKEEEDILKSLTNSETEMVQQTQSLRELISDLEHRLQGSVMELLQGVDGVIKRTENVTLKKPETFPKNQRRVFRAPDLKGMLEVFRELTDVRRYWVDVTVAPNNISCAVISEDKRQVSSPKPQIIYGYQTFVNFNYCTGILGSQSITSGKHYWEVDVSKKTAWILGVCAGFQPDAMCNIEKNENYQPKYGYWVIGLEEGVKCSAFQDSSFHTPSVPFIVPLSVIICPDRVGVFLDYEACTVSFFNITNHGFLIYKFSHCSFSQPVFPYLNPRKCGVPMTLCSPSS [human TRIM5α, 5-codon deletion at 331]", "enrichment": "0.873 ± 0.55"}, {"sequence": "MASGILVNVKEEVTCPICLELLTQPLSLDCGHSFCQACLTANHKKSMLDKGESSCPVCRISYQPENIRPNRHVANIVEKLREVKLSPEGQKVDHCARHGEKLLLFCQEDGKVICWLCERSQEHRGHHTFLTEEVAREYQVKLQAALEMLRQKQQEAEELEADIREEKASWKTQIQYDKTNVLADFEQLRDILDWEESNELQNLEKEEEDILKSLTNSETEMVQQTQSLRELISDLEHRLQGSVMELLQGVDGVIKRTENVTLKKPETFPKNQRRVFRAPDLKGMLEVFRELTDVRRYWVDVTVAPNNISCAVISEDKRQVSSPIYGARGTRYQTFVNFNYCTGILGSQSITSGKHYWEVDVSKKTAWILGVCAGFQPDAMCNIEKNENYQPKYGYWVIGLEEGVKCSAFQDSSFHTPSVPFIVPLSVIICPDRVGVFLDYEACTVSFFNITNHGFLIYKFSHCSFSQPVFPYLNPRKCGVPMTLCSPSS [human TRIM5α, 4-codon deletion at 324]", "enrichment": "0.475 ± 0.17"}, {"sequence": "MASGILVNVKEEVTCPICLELLTQPLSLDCGHSFCQACLTANHKKSMLDKGESSCPVCRISYQPENIRPNRHVANIVEKLREVKLSPEGQKVDHCARHGEKLLLFCQEDGKVICWLCERSQEHRGHHTFLTEEVAREYQVKLQAALEMLRQKQQEAEELEADIREEKASWKTQIQYDKTNVLADFEQLRDILDWEESNELQNLEKEEEDILKSLTNSETEMVQQTQSLRELISDLEHRLQGSVMELLQGVDGVIKRTENVTLKKPETFPKNQRRVFRAPDLKGMLEVFRELTDVRRYWVDVTVAPNNISCAVISEDKRQVSSPKPQIIYGAQIIYGARGTRYQTFVNFNYCTGILGSQSITSGKHYWEVDVSKKTAWILGVCAGFQPDAMCNIEKNENYQPKYGYWVIGLEEGVKCSAFQDSSFHTPSVPFIVPLSVIICPDRVGVFLDYEACTVSFFNITNHGFLIYKFSHCSFSQPVFPYLNPRKCGVPMTLCSPSS [human TRIM5α, 6-codon duplication at 326]", "enrichment": "0.2918 ± 0.0029"}]}]}
